Test results reported in patent US11192863B2, “Antiviral compounds and methods” (Biotron Limited, priority 2003, dated 2021).
Counter-ions that a name gives are not always drawn.

Tests used:
[1] = target: HCV p7 protein (Hepatitis C virus genotype 1a, UniProt P27958, L790F); settings: halo of growth score; E. coli expressing p7 at 37° C.
[2] = target: MHV E protein (Murine coronavirus, UniProt P0C2R0); settings: halo of growth score; E. coli expressing E protein at 37° C.

## N=C(N)NC(=O)/C=C/c1ccc(Cl)c(Cl)c1 [3,4-dichlorocinnamoylguanidine]
[1]
  HCV p7 protein Inhibition (score/# of times tested): 2.59/3 score
[2]
  MHV E protein Inhibition (score): 3.8 score

## N=C(N)NC(=O)/C=C/c1cccc(F)c1 [3-fluorocinnamoylguanidine]
[1]
  HCV p7 protein Inhibition (score/# of times tested): 0.86/1 score
[2]
  MHV E protein Inhibition (score): 0.8 score

## COc1cccc(/C=C/C(=O)NC(=N)N)c1 [(3-Methoxycinnamoyl)guanidine]
[1]
  HCV p7 protein Inhibition (score/# of times tested): 1.0/1 score
[2]
  MHV E protein Inhibition (score): 0.8 score

## N=C(N)NC(=O)/C=C/c1cccc(C2=CCCCC2)c1 [3-(cyclohex-1-en-1-yl)cinnamoylguanidine]
[1]
  HCV p7 protein Inhibition (score/# of times tested): 1.32/2 score
[2]
  MHV E protein Inhibition (score): 2.9 score

## NC(N)=NC(=O)c1cccc2ccccc12 [1-napthoylguanidine]
[1]
  HCV p7 protein Inhibition (score/# of times tested): 2.25/1 score
[2]
  MHV E protein Inhibition (score): 1.7 score

## CN(C)c1nc(N)c(C(=O)N=C(N)N)nc1Cl [5-(N,N-Dimethyl)amiloride hydrochloride]
[1]
  HCV p7 protein Inhibition (score/# of times tested): 1.0/1 score
[2]
  MHV E protein Inhibition (score): 0.5 score

## N=C(N)NC(=O)/C=C/c1cccc(F)c1F [2,3-difluorocinnamoylguanidine]
[1]
  HCV p7 protein Inhibition (score/# of times tested): 1.24/1 score
[2]
  MHV E protein Inhibition (score): 3.8 score

## Cc1cccc(/C=C/C(=O)NC(=N)N)c1C [2,3-dimethylcinnamoylguanidine]
[1]
  HCV p7 protein Inhibition (score/# of times tested): 3.88/2 score
[2]
  MHV E protein Inhibition (score): 1.0 score

## N=C(N)NC(=O)/C=C/c1ccc(C(F)(F)F)cc1 [4-(trifluoromethyl)cinnamoylguanidine]
[1]
  HCV p7 protein Inhibition (score/# of times tested): 3.33/5 score
[2]
  MHV E protein Inhibition (score): 2.8 score

## Cc1cc(C)c(/C=C/C(=O)NC(=N)N)c(C)c1 [2,4,6-trimethylcinnamoylguanidine]
[1]
  HCV p7 protein Inhibition (score/# of times tested): 3.75/1 score
[2]
  MHV E protein Inhibition (score): 1.2 score

## N=C(N)NC(=O)C1CC1c1ccccc1 (stereo not drawn) [(trans-2-Phenylcyclopropanecarbonyl)guanidine]
[1]
  HCV p7 protein Inhibition (score/# of times tested): 1.63/1 score
[2]
  MHV E protein Inhibition (score): 0.6 score

## COc1ccc(/C=C/C(=O)NC(=N)N)cc1 [(4-Methoxycinnamoyl)guanidine]
[1]
  HCV p7 protein Inhibition (score/# of times tested): 1.88/1 score
[2]
  MHV E protein Inhibition (score): 0.3 score

## CCOc1ccccc1/C=C/C(=O)NC(=N)N [2-ethoxycinnamoylguanidine]
[1]
  HCV p7 protein Inhibition (score/# of times tested): 1.00/1 score
[2]
  MHV E protein Inhibition (score): 0.7 score

## N=C(N)NC(=O)c1ccc2ccccc2c1Br [1-bromo-2-napthoylguanidine]
[1]
  HCV p7 protein Inhibition (score/# of times tested): 0.75/1 score
[2]
  MHV E protein Inhibition (score): 0.2 score

## Cc1ccc(C)c(/C=C/C(=O)NC(=N)N)c1 [2,5-dimethylcinnamoylguanidine]
[1]
  HCV p7 protein Inhibition (score/# of times tested): 3.43/4 score
[2]
  MHV E protein Inhibition (score): 2.3 score

## Cc1cc(C)c(C)c(/C=C/C(=O)NC(=N)N)c1C [2,3,5,6,-tetramethylcinnamoylguanidine]
[1]
  HCV p7 protein Inhibition (score/# of times tested): 1.51/2 score
[2]
  MHV E protein Inhibition (score): 0.4 score

## COc1ccccc1/C=C/C(=O)NC(=N)N [(2-Methoxycinnamoyl)guanidine]
[1]
  HCV p7 protein Inhibition (score/# of times tested): 0.75/1 score
[2]
  MHV E protein Inhibition (score): 0.8 score

## COc1ccc(Br)cc1/C=C/C(=O)NC(=N)N [5-bromo-2-methoxycinnamoylguanidine]
[1]
  HCV p7 protein Inhibition (score/# of times tested): 2.32/2 score
[2]
  MHV E protein Inhibition (score): 3.3 score
